Each structure is given as a SMILES string. Hit rate of the full screen: of about 46,000 compounds, about 60 (0.1%) were called active. About 3% were inconclusive and are not listed. The call rests on the fitted dose curve; in most records, active means well fitted inhibition curve with a large enough effect; inconclusive means small, poorly fitted or top-dose-only effect; inactive means no such curve, though single readings can be large or run the other way. This is one part of the list.

Here are results for 26 compounds from PubChem BioAssay AID1963576 (National Center for Advancing Translational Sciences (NCATS), 2024).

The test is described as follows: Primary qHTS assay for Inhibitors of ovarian cancer metastasis using an organotypic tumor microenvironment (TME) model. Further: nearly all actives have a fitted effect of over 65% in size.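 On activity change, negative = inhibition: plate controls were DMSO wells for no effect and tomatine positive control wells for full effect.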 The conditions noted are these: SKOV3ip1-GFP adhesion/invasion on 3D omental model, fluorescence; series mostly up to 45.8 µM; activity change, negative = inhibition: at the top concentration. In short, it runs like this: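 A 3D layer of primary human omental fibroblasts, mesothelial cells, fibronectin and collagen I, grown 48 hr, received SKOV3ip1-GFP cells in serum-free medium plus compounds at 0.36-46 umol/L. After 2 hr RT and 16 hr 37 C, fixed adherent GFP cells were counted; normalized to DMSO and tomatine.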
On the technique in general: qHTS replaces the single test concentration by a dilution series.
As to `CCOc1ccc(CCNC(=O)CN2C(=O)COc3ccc(S(=O)(=O)N4CCC(C)CC4)cc32)cc1`, the result was inactive.

In the case of `Cc1ccc(NC(=O)CCn2cccn2)cc1Cl`, the “activity change, negative = inhibition” value was inactive: 2.53%.

On to `O=S(=O)(c1ccccc1)c1nnn2c1nc(NCc1cccs1)c1sccc12`, for which the “activity change, negative = inhibition” value is inactive: 4.3%.

With `Cc1ccc2oc(C(=O)Nc3c(C(=O)Nc4ccccc4)oc4ccccc34)cc(=O)c2c1`, the “activity change, negative = inhibition” value was inactive: 8.55%.

Take `COC(=O)c1c(NC(=O)c2cc3nc(-c4ccc(OC)cc4)cc(C(F)(F)F)n3n2)sc2c1CCCC2`: the “activity change, negative = inhibition” value is inactive: -0.949%.

In the case of `Cc1ccc(NC2=CC(c3ccccc3F)N(c3ccc(C)cc3)C2=O)cc1` (stereo unspecified), the “activity change, negative = inhibition” value is inactive: 7.53%.

For `CCCCN(C)c1nnc(NC(=O)Nc2cccc(C(C)=O)c2)s1`, the “activity change, negative = inhibition” value is inactive: 1.74%.

`Cc1cc(C)cc(Nc2cc(-c3ccccc3)nc(C)n2)c1`: the “activity change, negative = inhibition” value is inactive: -3.76%.

Turning to `COc1ccc(NC(=O)Cn2c(=O)n(-c3ccccc3)c(=O)c3c4c(sc32)CCCC4)cc1`, the “activity change, negative = inhibition” value is inactive: 87.4%.

Take `c1cncc(CN2CCC(n3ncc4c(N5CCOCC5)nc(-c5ccc6[nH]ccc6c5)nc43)CC2)c1`: the “activity change, negative = inhibition” value was inactive: -16.5%.

As for `CC(C)Cn1c(=O)c2ccccc2n2c(CCC(=O)NCc3ccccc3Cl)nnc12`, the result was inactive.

`Cc1ccccc1-c1ncnn1-c1sc2c(c1C#N)CCCCC2`: the “activity change, negative = inhibition” value was inactive: -5.2%.

As for `C[C@]12CC[C@@H]3c4ccc(O)cc4CC[C@H]3[C@H]1[C@@H](O)[C@@H](O)[C@H]2O`, the “activity change, negative = inhibition” value was inactive: 6.93%.

`COc1ccc(-c2cc(C(=O)OCC(=O)c3ccc(C)cc3)c3cccc(Cl)c3n2)cc1`: the “activity change, negative = inhibition” value is inactive: -7.5%.

Turning to `O=C(CN1C=NS(=O)(=O)c2ccccc21)Nc1ccc(F)cc1`, the “activity change, negative = inhibition” value is inactive: 10.5%.

With `O=C(NCc1cccs1)c1ccc2c(c1)N(Cc1ccccc1Cl)C(=O)c1ccccc1S2`, the “activity change, negative = inhibition” value is inactive: 14.9%.

As to `COc1ccc(-c2cc3nc(C)c(CCC(=O)N4CCN(c5cccc(Cl)c5)CC4)c(C)n3n2)c(OC)c1`, the result was inactive.

For `CCOc1ccccc1NC(=O)C(Cc1ccccc1)NS(=O)(=O)c1ccc2c(c1)oc(=O)n2C` (stereo unspecified), the “activity change, negative = inhibition” value was inactive: 1.88%.

As to `COc1ccc(CNC(=O)c2cc3cc(C)ccc3n2C)cc1`, the “activity change, negative = inhibition” value is inactive: -3.03%.

As to `CC(=O)NCCNC(=O)CCCc1nnc2n(C)c(=O)c3sccc3n12`, the “activity change, negative = inhibition” value was inactive: 4.3%.

As for `O=C(Nc1cc(F)ccc1F)C1CCN(c2nc3ccccc3n3cccc23)CC1`, the compound was classed as inactive.

Regarding `Cc1ccc(-n2c(=O)c3c(c4cc(C)ccc4n3C)n(CC(=O)NCc3ccccc3Cl)c2=O)cc1`, the “activity change, negative = inhibition” value is inactive: -4.97%.

For the compound `Cc1sc2c(c1C)c(=O)n(CCc1ccccc1)c(=O)n2Cc1cccc(F)c1`, the call was inactive.

On to `O=C(NCc1ccccc1Br)c1ccc2nc(N3CCCCC3)sc2c1`, for which the “activity change, negative = inhibition” value was inactive: 21.8%.

`CC(Nc1ccc(-c2nc(-c3ccncc3)no2)cc1[N+](=O)[O-])c1ccccc1` (stereo unspecified): the outcome was inactive.

Take `CCCCN(CCCC)C(=O)CN(C)S(=O)(=O)c1ccc2c(c1)c(=O)n(C)c(=O)n2C`: the “activity change, negative = inhibition” value was inactive: -3.08%.
